Holding throughout (test): Primary Screen for Target Class Profiling of Small Molecule Inhibitors of Methyltransferases
In assay [1] the target is Guanidinoacetate N-methyltransferase (Homo sapiens) (UniProt Q14353). Conditions: purified enzyme, MTase-Glo SAH luminescence; measured here: GAMT inhibition; at 40 µM; stronger effect = lower value. The gist of the method: (§1)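 Each enzyme was reacted with SAM and its substrate, with compounds tested once at 40 uM; SAH formed was read by MTase-Glo luminescence.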
For assay [2], the target named is Nicotinamide N-methyltransferase (Homo sapiens) (UniProt P40261). The note with it: purified enzyme, MTase-Glo SAH luminescence; measured here: NNMT inhibition; at 40 µM; stronger effect = lower value. The method in brief: as §1
Assay [3] addresses Phenylethanolamine N-methyltransferase (Homo sapiens) (UniProt P11086). The note with it: purified enzyme, MTase-Glo SAH luminescence; measured here: PNMT inhibition; at 40 µM; stronger effect = lower value. The gist of the method:
as §1

The target in assay [4] is Glycine N-methyltransferase (Homo sapiens) (UniProt Q14749). Conditions: purified enzyme, MTase-Glo SAH luminescence; measured here: GNMT inhibition; at 40 µM; stronger effect = lower value. The gist of the method: as §1
For assay [5], the target named is Histamine N-methyltransferase (Homo sapiens) (UniProt P50135). Conditions: purified enzyme, MTase-Glo SAH luminescence; measured here: HNMT inhibition; at 40 µM; stronger effect = lower value. The gist of the method: as §1

SMILES strings stand for the structures. Values joined by “and” are separate entries in the source; they are usually repeats but may differ in a detail not shown here. Identical values can stand only once. Some of the results follow. Further columns of the screen follow, without active or inactive calls.
% is set by controls: 0 for no effect and ±100 for the full control effect.

`COC[C@H](C)Oc1cc(O[C@@H](C)Cc2ccccc2)cc(C(=O)Nc2ccc(C(=O)O)cn2)c1`: the figures for the activity change, negative = inhibition in assay [1], in assay [2] and in assay [3] were -5.61%, -14% and -0.525%, respectively.

On to `C[C@@H]1O[C@@H](O[C@@H]2/C=C/C=C/C=C\C=C\C[C@H](C)OC(=O)/C=C/[C@H]3O[C@@H]3C[C@H](O)C[C@]3(O)C[C@@H](O)[C@@H](C(=O)O)[C@H](C2)O3)[C@H](O)[C@H](N)[C@@H]1O`, for which the activity change, negative = inhibition is -12.7% in assay [1], -20.8% in assay [2] and -1.32% in assay [3].

For `OC[C@H]1O[C@@H](OCCc2ccc(O)cc2)[C@H](O[C@@H]2OC[C@](O)(CO)[C@H]2O)[C@@H](O)[C@@H]1O`, the activity change, negative = inhibition in assay [4] is 4.32%; in assay [1], 8.56%; in assay [5] it was 9.95%; in assay [2], -3.57%; in assay [3] it was 6.39%.

As to `CCN1CCN(Cc2ccc(C(=O)Nc3ccc(C)c(Oc4ccc5c(c4)CC(=O)N5)c3)cc2C(F)(F)F)CC1`, the activity change, negative = inhibition is -0.979% in assay [4]; -1.15% in assay [1]; -5.42% in assay [5]; -21.7% in assay [2]; -14.5% in assay [3].

With `CCc1cccc(NC(=O)c2cc3n(n2)CC(C)(C(=O)NC2CCCC2)N(CC)C3=O)c1` (stereo unspecified), the activity change, negative = inhibition in assay [4] was 2.24%; in assay [1], 1.72%; in assay [5], -5.9%; in assay [2], 2.7%; in assay [3], 3.36%.

`CC1(C)[C@H]2CC[C@@H](CNC(=O)c3ccc4ccccc4n3)[C@@H]1C2`: the activity change, negative = inhibition in assay [4] was -6.35%; in assay [1], -4.36%; in assay [5], -1.17%; in assay [2] it was -20.9%; in assay [3], -11.5%.

On to `CCC(=O)N1CCc2c(C(=O)N3CCCCC3)cccc21`, for which the activity change, negative = inhibition in assay [4] is -5.63%; in assay [1], -12.4%; in assay [5] it was -3.83%; in assay [2] it was -16.5%; in assay [3], -14%.

As to `COC1CCC(C(=O)N2CCC3(CC2)OC(=O)N(CCOc2ccccc2)C3(C)c2cccnc2)CC1` (stereo unspecified), the activity change, negative = inhibition was -2.43% in assay [4]; -8.92% in assay [1]; -2.98% in assay [5]; -14.9% in assay [2]; -9.82% in assay [3].

`C=CCS(=O)(=O)N1C[C@H]2OC(=O)N(CCc3cccc(Cl)c3)[C@H]2C1`: the activity change, negative = inhibition in assay [4] was -3.31%; in assay [1] it was -4.75%; in assay [5], -0.435%; in assay [2] it was -1.66%; in assay [3], -4.94%.

As to `COc1ccccc1[C@@H]1C2=C(CC(C)(C)CC2=O)Nc2n[nH]c(C(F)(F)F)c21`, the activity change, negative = inhibition in assay [4] is -0.852%; in assay [1], 6.58%; in assay [5] it was 0.149%; in assay [2] it was -21.7%; in assay [3] it was -1.49%.

Take `CCC1(C(=O)O)CCCCC(=O)N1` (stereo unspecified): the activity change, negative = inhibition was -2.71% in assay [4]; -3.96% in assay [1]; -2.42% in assay [5]; -5.89% in assay [2]; 0.713% in assay [3].

Consider `CCC(C)C(=O)OC1CC(O)C23C4OCC5(C(O)CC2C1(C)C(O)O4)C3C(=O)CC1(C)C(c2ccoc2)CC2OC215` (stereo unspecified), for which the activity change, negative = inhibition in assay [4] was -0.408%; in assay [1], 1.53%; in assay [5], 2.28%; in assay [2], -6.99%; in assay [3], -0.077%.

For `COCc1nc(C2CC(NC(=O)CN3C(=O)CN(C)C3=O)C2)cc(=O)[nH]1` (stereo unspecified), the activity change, negative = inhibition in assay [4] is -3.19%; in assay [1], -7.69%; in assay [5], -2.66%; in assay [2] it was -4.9%; in assay [3], -9.96%.

With `COc1cccc(CNC(=O)c2ccc3c(=O)nc4c(-c5ccc(C)cc5)n[nH]n4c3c2)c1`, the activity change, negative = inhibition in assay [4] is -13.3%; in assay [1] it was -0.321%; in assay [5], -5.3%; in assay [2] it was -8.65%; in assay [3], -8.73%.

Take `COc1ccc(-c2cc3n(n2)CC(C)(C(=O)NC2CCCCCC2)N(Cc2ccccc2)C3=O)cc1` (stereo unspecified): the activity change, negative = inhibition in assay [4] worked out at 2.04%; in assay [1], 0%; in assay [5], 7.71%; in assay [2], 8.26%; in assay [3], 2.62%.

With `CN(C)C(=O)[C@H](O)[C@H](Cc1ccccc1)NC(=O)c1cc2cc(Cl)ccc2[nH]1`, the activity change, negative = inhibition in assay [4] was -8.61% and -1.25%; in assay [1], 1.36% and 4.62%; in assay [5] it was -1.52% and 5.9%; in assay [2] it was -10.8% and -14.6%; in assay [3], -4.18% and -0.51%.

Consider `CCCn1c(=O)c2cc(F)ccc2n2c(SCc3cccc(Cl)c3)nnc12`, for which the activity change, negative = inhibition in assay [4] was -16.5%; in assay [1] it was 2.82%; in assay [5], 4.32%; in assay [2] it was -14.8%; in assay [3], 1.59%.

Regarding `CCCC1(C2CCN(C(=O)Cc3ccc(OC)cc3)CC2)NC(=O)N(CCc2cccs2)C1=O` (stereo unspecified), the activity change, negative = inhibition in assay [4] is -4.25%; in assay [1] it was -8.92%; in assay [5], -1.71%; in assay [2], -15.6%; in assay [3], 7.99%.

Consider `c1ccc(-c2n[nH]c(CC3CCNC3)n2)cc1` (stereo unspecified), for which the activity change, negative = inhibition in assay [4] was -3.81%; in assay [1], -0.638%; in assay [5] it was -2.13%; in assay [2], -7.85%; in assay [3], -3.27%.

On to `CCc1ccccc1NC(=O)Cn1nc2n(C(C)C)c(=O)c3ccc(C(=O)NCC(C)C)cc3n2c1=O`, for which the activity change, negative = inhibition in assay [4] turned out to be 0.092%; in assay [1], 4.45%; in assay [5], 1.42%; in assay [2], 0.551%; in assay [3] it was 0.664%.

In the case of `Cc1noc2c(-c3cccc(CO)c3)cc(-c3cccc(C(F)(F)F)c3)nc12`, the activity change, negative = inhibition was -3.91% in assay [4]; 0.511% in assay [1]; 0.878% in assay [5]; -9.37% in assay [2]; -11% in assay [3].

On to `Cc1ccc(C(=O)Cn2nc3n(CCC(C)C)c(=O)c4ccccc4n3c2=O)c(C)c1`, for which the activity change, negative = inhibition was 2.83% in assay [4]; 1% in assay [1]; 8.22% in assay [5]; -6.65% in assay [2]; 5.83% in assay [3].

As for `Cc1cc(=O)n(CC(=O)Nc2ccc3c(c2)OCCO3)c(N2CCc3ccccc3C2)n1`, the activity change, negative = inhibition in assay [4] was -9.29%; in assay [1], -9.84%; in assay [5], -3.02%; in assay [2], -15.8%; in assay [3] it was -13.3%.

With `Cc1ccc(Cl)cc1NC(=O)CN(C)S(=O)(=O)c1ccc2[nH]c3c(c2c1)CCCC3`, the activity change, negative = inhibition in assay [4] was -2.95%; in assay [1], 4.64%; in assay [5], 5.9%; in assay [2], -2.21%; in assay [3] it was 2.55%.

As for `COC(=O)[C@H](NC(=O)c1cc(-c2ccccc2)nc2ccccc12)c1ccccc1`, the activity change, negative = inhibition is -3.53% in assay [4]; 3.33% in assay [1]; -0.342% in assay [5]; -7.61% in assay [2]; 3.6% in assay [3].

As to `C=C1C(=O)O[C@@H]2/C=C(\CO)CC/C=C(/C=O)C[C@@H](O)[C@@H]12`, the activity change, negative = inhibition in assay [4] is -7.65%; in assay [1] it was -8.54%; in assay [5], 1.58%; in assay [2] it was -15.4%; in assay [3] it was 0.173%.

For the compound `COC(=O)c1ncn2c1C(=O)N(CC(C)c1ccccc1)C(C)(C(=O)NC1CCCCCC1)C2` (stereo unspecified), the activity change, negative = inhibition is 7.7% in assay [4]; 2.98% in assay [1]; -4.1% in assay [5]; 8.96% in assay [2]; 7.74% in assay [3].

As for `Cc1ccc(CNC(=O)C2(C)Cn3nc(C(=O)NCCN4CCCCC4)cc3C(=O)N2C)cc1` (stereo unspecified), the activity change, negative = inhibition in assay [4] was 4.33%; in assay [1], 0%; in assay [5], 2.85%; in assay [2], 0.736%; in assay [3], 2.15%.

`COc1ccnc(CCc2nc3ncccc3[nH]2)c1`: the activity change, negative = inhibition in assay [4] was -2.24%; in assay [1], -1.04%; in assay [5], 8.77%; in assay [2], -16%; in assay [3] it was 2.15%.

As to `CN(C)C(N)=NCCC[C@H](N)C(=O)O`, the activity change, negative = inhibition was -3.07% in assay [4]; 7.83% in assay [1]; -0.719% in assay [5]; -1.84% in assay [2]; 8.02% in assay [3].

The record behind these values is PubChem BioAssay AID1745853 (National Center for Advancing Translational Sciences (NCATS), 2022).
